From the RNAGym collection of RNA variant scans (doi:10.1073/pnas.2313332121) come the findings set out here.

First the molecules themselves.
B1: TPR 5TU (parent)
chain: GGAUCUUCUCGAUCUAACAAAAAAGACAAAUCUGCCACAAAGCUUGAGAGCAUCUUCGGAUGCAGAGGCGGCAGCCUUCGGUGGCGCGAUAGCGCCAACGUUCUCAACUAUGACACGCAAAACGCGUGCUCCGUUGAAUGGAGUUUAUCAUG

Variants at the background level are over-represented here. Some results are limits rather than exact numbers.

This data set covers variants of B1. As to the kind of experiment: polymerase ribozyme fitness, log enrichment relative to wild type (log ratio); higher = more active; in vitro selection for triplet polymerase activity. An outline of the steps: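 Both subunits of a heterodimeric triplet polymerase ribozyme were given their own mutant library, built by PCR and transcribed. Each library was annealed with a biotinylated primer, the partner subunit and triplets, incubated frozen at −7 °C, and its extended constructs gel-excised, captured on streptavidin beads and amplified by RT-PCR, all in one round done in triplicate. Fitness is the logarithm of genotype enrichment relative to wild-type enrichment, with replicates averaged by inverse-variance weighting. That logarithm is base 2, and Illumina-sequenced genotypes needed ≥10 input reads and ≥1 read per output.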
On to GGAUCUUCUGGAUCUAACAAAAAAGACAAAUCUGCCACACAGCUUGAGAGCAUCUUCGGAUGCAGAGGCGGCAGCCUUCGGUGGCGCGAUAGAGCCAACGUUCACAACUAUGACACGCAAAACGCGUGCUCCGUUGAAUGCAGGUUAUCAUA, for which the “polymerase ribozyme fitness (log ratio)” value was not above -4.2.
In the case of GGAUCUUCUGGAUCUAACAAAAAAGACCAAUCUGCCAAAAAGUUUGAGAGCAUCUUCGGAUGCAGAGGCGGCAGCCUUCGGUGGCGCGAUAGCGGCAACGUUCUCAACUAUGACACGCAAAACGCGUGCUCCGUUGAAUGGAUUUUAUCAUG it was not above -4.2; in that of GGAUCUUCUGGAUCUAACAAAAAAGCCAAAUCUGCCACAAAGCUUGAGAGCAUCGUCGGAUGCAGAGGCGGCAGCCUUCGGUGGAGCGAUAGCGCCAACGUUCUCAACUAUGACACGCAAAACGCAUGCUCCGUUGAAUGGAGUUUAUCAUG, not above -4.2.
In the case of GGAUCUUCUGGAUCUAACAAAAAAGCCAAAUCUGCCACAAAGCUUGAGAGCAUCUUCGGAUGCAGAGGCGGCAGCCUUCGGUGGCGCGAUAGAGCCAACAUUCUCAACUAUGACACGCAAAACGCGUGCUCCGUUGAACGGAGUAUAUCAUG, the “polymerase ribozyme fitness (log ratio)” value is not above -4.2.
In the case of GGAUCUUCUGGAUCUAACAAAAAAGACAAAUCUGCCACAUAGCUUGGGAGCAUCUUCGGUUGCAGAGGCGGCAGCCUUCGGUGGCGCGAUGACGCCAACGUUCUCAACUAUGACACGCAAAACGCGUGCUCCGUUGAAUGGAGUUUAUCAUG it was not above -4.2; in that of GGAUCUUCUGGAUCUAACAAAAAAGACACUUCUGCCACAAAGCUUGAUAGCAUCAUCGGAUGCAGAGGCGGCAGCCUUCGGUGGCGCGUUAGGGCCAACGUUCUCAACUAUGACACGCAAAACGCGUUCUCCGUUGAAUGGAGUUUAUCAUG, not above -4.2.
For GGAUCUUCUGGAUCUAACAAAAAAGGCAAAUCUGCCACAAAGCUUGAGAGCAUCUUCGGAUGCAGAGGCGGCAGCCUUCGGUGGGGCGAUAGCGCCAACGUUCUCAACUAUGACACGCAAAACGCGUGCUCCGUUGAAUGGACUUUAUCAUG, the “polymerase ribozyme fitness (log ratio)” value was not above -4.2.
The same measure for GGAUCUUCUGGAUCUAACAAAAAUGACAAAUCUGCCACAAAGCUUGAGAGCAUCUUCGGAUGCAGAGGCGGCAGCCUUCGGUGGCGCGAUAGCGCCAACGUUCUCAACUAUGACACGCAAAACGCGUACUCCGUUGAAUGGAGUUUAUCAUG: not above -4.2; for GGAUCUUCUGGAUCUAACAAAAAAGACAAUUCUGCCACAAAGCUUGAGAGCAUCUUCGGCUGCAGAGGCGGCCGCCUUCGUUGGCGCGAUAGCUCCAACGUUCUCAACUAUGACACGCAAAACGCGUGCUCCGUUGAAAGGAGUUUAUCCUG: not above -4.2; for GGAUCUUCUGGAUCUAACAAAAAAGACUAAUCUGCCACAAAGCUUGAGAGCGUCUUCGGAUUCAGAGGCGGCAGCCUUCGGUGGCGCGAUAGCGCUAACGGUCUCAACUAUGACACACAAAACGCGAGCUUCAUUGAAUGGAGUUUAACAUG: not above -4.2.
In the case of GGAUCUUCUGGAUCUAACAAAAAAGACAAGUCUGCCACAAAUCUUGCGAGCAUCUUCGGAUGCAGAGGCGGCAGCUUUCGGUGGCGCGAUAGGGCCAACGUUCUCAACUAUGACACGCAAUACGCGUGCUCCGUUGAAUGGAGUUUAUCAUG it was not above -4.2; in that of GGAUCUUCUGGAUCUAACAAAAAAGACCAAUCUGCCACAAAGCUUGAGAGUAUCUUCGGAUGCAGAGGCGGCAGCCUUCGGUGGCGUAAUCGCGCCAACGUUCUCAACUAUGACACCCAAAACUCGUGCGCCGUUGAAUGGAGUUUAUCAUG, not above -4.2.
The same measure for GGAUCUUCUGGAUCUAACAAAAAAGACAUAUCUUCCAAAAAGCUUGAGAGCAUCUUCGGAUGCAGAGGCGGCAGCCUUCGGUGGCGGAAUAGCGCCAACGUUCUCAACUAUGACACGCAAAUCGCGUGCUCCGUUCAAUGGAGUUUAUCAUG: not above -4.2.
In the case of GGAUCUUCUGGAUCUAACAAAAAAGACACAUCUGCCACAAAGCUUGAGAGCAACUUCGGAUGCAGAGGCGGCAGCCUUCAGUGGCGCGAUAGUGCCAACGUUCUCAACUAUGACACGCCAAACGCGUGCUCCGUUGAAUGGAGGUUAUCAUG, the “polymerase ribozyme fitness (log ratio)” value was not above -4.2.
With GGAUCUUCUGGAUCUAACAAAAAAGACAAAUCUGCCACACAGCUUGAGAGCAUCUUCGGAUGCAGAGGCGGCAGCCUGCGGUGUCGCUAUAGCGCCAACGUUCUCAACUAUGACACGCAAAACGCGUGCUCCGUUGAAUGUAGUUUAUCAUG, the “polymerase ribozyme fitness (log ratio)” value was not above -4.2.
Consider GGAUCUUCUGGAUCUAACAAAAAAGUCAAAUCUGCCACAAAGCUUGAGAGCAUCUUCGGAUGCAGAUGCGGCAGCCUUCGGUUGCGCGAUAGGGCCAACGUUCUCAACUAUGACACGCAAAACGCGUGCUCCGUUGAAUGGAGUUUAUCAUG, for which the “polymerase ribozyme fitness (log ratio)” value was not above -4.2.
In the case of GGAUCUUCUGGAUCUAACAAAAAAGACACAUCUGCCACAACGCUUGAGAACAUCUUCGGAUGCAGAGGCGGCAGCCUUCGGUGGCGCGAUAGCGCCCUCGUUCUCAACUAUGACACGCAAAACACGUGCUCCGUUGAAUGGGGUUUAUCAUG it was not above -4.2.
Take GGAUCUUCUGGAUCUAACAAAAAAGACAACUCUGCCACAAAGCUUGAGAGCAUCUUCGGAUGCAGAGGCGGCAGCCUUCGGUGGCGCGAUAGGGCCAACGGUCUCAACUAUGACACGCAAAACGCGUGCUCCGUUGAAUGGAGUUUAUCAUG: the “polymerase ribozyme fitness (log ratio)” value is not above -4.2.
For GGAUCUUCUGGAUCUAACAAAAAAGACACAUCUGCCACAAAGCUUGAGAGCAUCUUCGGAUGCAGAGGCGGCAGACUUCGGUGGCGCGAUAUCGCCAACGUUCUCAACUAUGACACGCAAAACGCGUUCUUCGUUGAAUUGAGUUUAUCAUG, the “polymerase ribozyme fitness (log ratio)” value is not above -4.2.
